Test results taken from the supplement of paper PMC10126150.
Sequences with one replicate were seen in a single cluster, so their values are uncertain.

System: ATP
Test: switch fluorescence ratio, 500 uM ATP over buffer (Cy3 cluster intensity, sum of 5 cycles each) (fold (ratio)); higher = stronger signal-on switching upon ATP binding; sequences stand for … in TCGTCGGCAGCGTCAGATGTGTATAAGAGACAGTTTTTTTTTTTTTTTTTTTTTTTTT…TC
Details: aptamer strand: ATP DNA aptamer (quencher-CACCTGGGGGAGTATTGCGGAGGAAGG + anchor), 100 nM annealed; ATP concentration: 500 uM; one replicate
In short: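 Values give the fluorescence ratio for each switch-domain sequence, averaged from per-cluster ratios of summed target-cycle to summed buffer-cycle Cy3 intensity. The Cy3-labelled switching-strand clusters sat on a modified Illumina MiSeq flow-cell, were annealed to 100 nM quencher-labelled ATP aptamer, and were imaged in selection buffer, then after 15 min with 500 uM ATP at 22 °C. Five cycles ran with NaOH stripping and re-annealing between them, and clusters outside 100-1000 RFU were excluded.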
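Note: ATP exposure 15 min at 22 °C before imaging.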

Row | Sequence | switch fluorescence ratio
1 | AATTTTAGCG | 1
2 | AATGGATGGA | 1.02
3 | GTTTAAGCGA | 1.03
4 | TATCCGCTAA | 3.89
5 | CGGTCTTTAA | 0.979
6 | GATTATAT | 0.999
7 | TCTGCCAAGA | 1.03
8 | CCTGTACAGA | 0.979
9 | TCGTAGAGTC | 0.981
10 | CGCAGAACCG | 0.981
11 | ATAAAGCCCT | 0.997
12 | GTAATAGTCC | 2.07
13 | ATGCATGTTT | 1
14 | GGAGGGATGA | 1.01
15 | AGGTTAGTCT | 1.04
16 | TGATTGTCGT | 0.98
17 | ACACGCATCC | 1.7
18 | ACTCAAATGT | 1.04
19 | GCGGTGTGAG | 0.982
20 | GGTTCTACGC | 1.04
21 | GATCCGGGGC | 0.999
22 | TTTCTAGGCC | 0.962
23 | ATTTAATTT | 1.03
24 | CAGACGTGTC | 0.966
25 | TATACTGTTA | 1.05

Row | Sequence | switch fluorescence ratio
26 | ACCCCAGTTA | 1.2
27 | TAACTGGGCG | 1.01
28 | GGGAGAATCA | 0.956
29 | ATTAGTCACC | 1
30 | GAAATTAGCT | 0.996
31 | AGTGATTGGC | 0.976
32 | ACATGTAAAT | 0.999
33 | GCTAGGCCGG | 1.02
34 | GACAGTAAGA | 1.08
35 | TAATAGGACT | 1.02
36 | TGCTTGACCA | 1.08
37 | CAATCAAACT | 0.984
38 | GGAGAGACGG | 0.929
39 | TAGCTCCTTT | 1.04
40 | TGGCTCGTAC | 1.01
41 | GGAGGTGGA | 1.02
42 | GAATAGAGTC | 0.999
43 | TCACTATAAC | 1.06
44 | TTGTCTTGCT | 0.962
45 | ACCTCGCCGT | 1.09
46 | CATTGGTCCC | 1
47 | AGTCTGGTGA | 1.02
48 | AGCTTGCTAC | 1
49 | TGGTGTACG | 1.01
50 | AGGAACGCTG | 0.945

Row | Sequence | switch fluorescence ratio
51 | TCCTTATTTA | 1.64
52 | TGAGGGTTT | 1.02
53 | TTGGTTCTTA | 0.943
54 | AGGATTAGTT | 1.02
55 | CTCATGCATG | 0.993
56 | CTAGTGCCCC | 1.13
57 | TAGGTGAAT | 1.04
58 | CGCCTCCCTT | 1.56
59 | AAGCCGCAGG | 1.4
60 | GTACGCATAA | 2.52
61 | AAAAGATTTG | 0.984
62 | CCGATCGTGT | 1.92
63 | GGATGATAGG | 1.03
64 | TACAAGAAAG | 1.03
65 | ATATTACAAA | 1.02
66 | CAACTGTATG | 1.08
67 | AGAGTAACGT | 0.985
68 | GAATATCGCT | 1.07
69 | TCAATTCATT | 0.995
70 | AAAGCAAATC | 1.64
71 | CACTAATTGT | 0.996
72 | CGATGGTGC | 1.04
73 | TCCACCATGG | 1.2
74 | GGGTGTTCTC | 1.02
75 | AACAAAATGG | 1.01

Row | Sequence | switch fluorescence ratio
76 | AGACATTTTT | 1
77 | GTACACGCCG | 1.03
78 | GGGGCGTACT | 1.01
79 | TAGAATA | 1
80 | CAGTGGCTTA | 1.03
81 | GCGGATCCAG | 1
82 | ACTATGTCCT | 1.05
83 | CTTAATCGTA | 0.95
84 | GGCCCGTACA | 1.01
85 | CGTGATACCT | 1.38
86 | TGGGGGAG | 1.03
87 | CGGTTAATTG | 0.971
88 | GTCGAGGCGG | 1.02
89 | GAAGGTAGAA | 1.04
90 | GACTTTTCAA | 0.96
91 | GAATTACTGC | 0.972
92 | TTATAGCAAC | 1.27
93 | TATCTCTATT | 0.973
94 | CCGAGCCGTC | 1.06
95 | ACTTAAGGCC | 1.09
96 | TTCGACTCCC | 1.12
97 | GCGCGAGGCC | 0.988
98 | TCTGGGGTAT | 1.05
99 | GATAGGCTCC | 1.02
100 | CAAAGAACGT | 1.11

Row | Sequence | switch fluorescence ratio
101 | ATGGTACATT | 1.03
102 | AGTGGGCTTG | 0.983
103 | ACGGCGCCAC | 1.14
104 | TGTGCGGGGC | 1.26
105 | GGTACGAAG | 0.961
106 | CGCTATCGTG | 1.09
107 | AAATATGACC | 1.06
108 | ACTGCATCAT | 1.1
109 | CGATTATTCA | 1.01
110 | GGGCGTGGGC | 0.992
111 | AAAGGTATCC | 0.973
112 | TATGGTCTT | 0.962
113 | TACGATGAAA | 0.98
114 | GGGGGCGACG | 1.15
115 | GCAAGATATG | 0.997
116 | ATATAATCCC | 1.05
117 | TATTGTGGTC | 1.03
118 | ACTTCTGGT | 0.96
119 | TGGAATTTGC | 1.02
120 | CACATCCGCT | 1.32
121 | CAGGGTTACG | 0.961
122 | CTGCGCACCT | 1.64
123 | CCCGGCTTCT | 1.03
124 | TTTTACAGA | 0.978
125 | TATATGTCAT | 0.983

Row | Sequence | switch fluorescence ratio
126 | AGTCAAGTC | 1.04
127 | CCGATCACTG | 1.1
128 | AAATGCGGTG | 0.967
129 | GTCCAGATTA | 1
130 | ACCTTGAAGT | 1.06
131 | TTCTGTGATG | 0.989
132 | TTAGCCGAAC | 1.05
133 | GCCAACTACT | 1.1
134 | GCATTATACG | 1.22
135 | GAACCGTAAG | 0.979
136 | TTCGATCTTA | 0.98
137 | ACTGGGGTGC | 1.06
138 | TAAGTGTTAC | 1.03
139 | TCTGTAAAGG | 0.969
140 | CTTTGCGGCA | 1.02
141 | GCCTTGCAGG | 0.967
142 | ATCCTGAGAA | 0.964
143 | AGCAATAGGG | 2.93
144 | CAACGTTCGA | 1
145 | TGCGGTGTGT | 1.01
146 | TGGGTCCATC | 0.981
147 | GCTTGGGGGC | 0.96
148 | GGTGCTACAG | 1.03
149 | ACGGCCAAAG | 1.03
150 | ATCTCGTTAT | 0.986

Row | Sequence | switch fluorescence ratio
151 | CGCTTGTGCG | 0.929
152 | GTGCCTCTCA | 1
153 | GGCCGTAGCC | 0.987
154 | ACTTGATGAG | 1.02
155 | TCTGGGGTGA | 0.972
156 | ATGTTGGCAC | 0.989
157 | GCAATTAGAA | 1.01
158 | AAGGACCAGT | 1.05
159 | AAAATTCCTT | 1.08
160 | GTGACTCCAG | 1.05
161 | GGTTCAACCG | 1.05
162 | TTGAATCCTG | 1.02
163 | CCGGAGCCGT | 1.28
164 | TAGCAGCGGT | 1.03
165 | TACGCGGGCG | 1.02
166 | CAGATTATGA | 0.943
167 | CACTATAGGG | 0.987
168 | ATGTTCCTTG | 0.981
169 | TGATAAGTCT | 0.987
170 | AACATAGCGA | 1.06
171 | CACAAAGTCT | 1.01
172 | TTGGCCGATT | 1.02
173 | AAGTTAGCGC | 1.01
174 | AGAAGAACTA | 1.03
175 | ATAAGAATGC | 1

Row | Sequence | switch fluorescence ratio
176 | GCGCTTATGC | 1.2
177 | TCCTTGATCA | 1.03
178 | CTGACGCCGG | 1.22
179 | TGACCGGGTT | 0.999
180 | GCAATCCGGG | 1.38
181 | GGGATCTACT | 1.01
182 | TTTCGATTCA | 1.02
183 | GAATGTTGAC | 1.01
184 | GCCCGCATGG | 1.72
185 | GACCACGCCT | 1.18
186 | GGCATGCGTG | 0.968
187 | TGTAAGATCT | 0.965
188 | TGAGTCATTG | 1.07
189 | CGCATTGCGT | 1.01
190 | AATCTATTAC | 1.03
191 | TATTGGTGTA | 0.976
192 | TGACTCAGAG | 1.03
193 | AACATGGGCA | 0.975
194 | ACCACCTAGC | 1.17
195 | TCGGCTGGGA | 0.981
196 | AGCTCTCAGT | 0.995
197 | CGTAGGTTCC | 1.03
198 | AAAGTATTAG | 0.968
199 | ATTTCGAGGG | 1.01
200 | AGTCCCGGGT | 0.917
